The labels stand for the following.
T1: RBFOX1 RRM RbFoxmut (Fox-RRM*) (Homo sapiens, UniProt Q9NWB1 109-208, R118D;E147R;N151S;E152T)
T1 sequence: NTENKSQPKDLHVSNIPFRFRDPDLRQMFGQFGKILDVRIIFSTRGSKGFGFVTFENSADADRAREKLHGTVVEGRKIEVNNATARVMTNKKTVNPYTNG

B1: ACCCCAG (DNA:RNA)
RNA: GGGAGACCGGAAUUCAGAUUGUCCACCCCAGUUAAAUCCCGUCGUAGCCACCA
DNA 1: CAATCTGAATTCCGGTCTCCC
DNA 2: TGGTGGCTACGACGGGATT
B2: CCUGAAC (DNA:RNA)
RNA: B1 RNA with A25C, C27U, C28G, C29A, G31C
DNA 1: CAATCTGAATTCCGGTCTCCC
DNA 2: TGGTGGCTACGACGGGATT
B3: CUCUAGA (DNA:RNA)
RNA: B1 RNA with A25C, C26U, C28U, C29A, A30G, G31A
DNA 1: CAATCTGAATTCCGGTCTCCC
DNA 2: TGGTGGCTACGACGGGATT
B4: UUCUAUC (DNA:RNA)
RNA: B1 RNA with A25U, C26U, C28U, C29A, A30U, G31C
DNA 1: CAATCTGAATTCCGGTCTCCC
DNA 2: TGGTGGCTACGACGGGATT
B5: CGGUCGA (DNA:RNA)
RNA: B1 RNA with A25C, C26G, C27G, C28U, A30G, G31A
DNA 1: CAATCTGAATTCCGGTCTCCC
DNA 2: TGGTGGCTACGACGGGATT
B6: AGCCGGU (DNA:RNA)
RNA: B1 RNA with C26G, C29G, A30G, G31U
DNA 1: CAATCTGAATTCCGGTCTCCC
DNA 2: TGGTGGCTACGACGGGATT
B7: AGGGGAU (DNA:RNA)
RNA: B1 RNA with C26G, C27G, C28G, C29G, G31U
DNA 1: CAATCTGAATTCCGGTCTCCC
DNA 2: TGGTGGCTACGACGGGATT
B8: CCAAGUU (DNA:RNA)
RNA: B1 RNA with A25C, C27A, C28A, C29G, A30U, G31U
DNA 1: CAATCTGAATTCCGGTCTCCC
DNA 2: TGGTGGCTACGACGGGATT
B9: AAAAGCC (DNA:RNA)
RNA: B1 RNA with C26A, C27A, C28A, C29G, A30C, G31C
DNA 1: CAATCTGAATTCCGGTCTCCC
DNA 2: TGGTGGCTACGACGGGATT
B10: GUCUACC (DNA:RNA)
RNA: B1 RNA with A25G, C26U, C28U, C29A, A30C, G31C
DNA 1: CAATCTGAATTCCGGTCTCCC
DNA 2: TGGTGGCTACGACGGGATT
B11: GUGUCAC (DNA:RNA)
RNA: B1 RNA with A25G, C26U, C27G, C28U, G31C
DNA 1: CAATCTGAATTCCGGTCTCCC
DNA 2: TGGTGGCTACGACGGGATT
B12: GACCGUC (DNA:RNA)
RNA: B1 RNA with A25G, C26A, C29G, A30U, G31C
DNA 1: CAATCTGAATTCCGGTCTCCC
DNA 2: TGGTGGCTACGACGGGATT
B13: ACCCAGA (DNA:RNA)
RNA: B1 RNA with C29A, A30G, G31A
DNA 1: CAATCTGAATTCCGGTCTCCC
DNA 2: TGGTGGCTACGACGGGATT
B14: AGUACAC (DNA:RNA)
RNA: B1 RNA with C26G, C27U, C28A, G31C
DNA 1: CAATCTGAATTCCGGTCTCCC
DNA 2: TGGTGGCTACGACGGGATT
B15: CCAUACC (DNA:RNA)
RNA: B1 RNA with A25C, C27A, C28U, C29A, A30C, G31C
DNA 1: CAATCTGAATTCCGGTCTCCC
DNA 2: TGGTGGCTACGACGGGATT
B16: CCACGAC (DNA:RNA)
RNA: B1 RNA with A25C, C27A, C29G, G31C
DNA 1: CAATCTGAATTCCGGTCTCCC
DNA 2: TGGTGGCTACGACGGGATT
B17: GUGCCAU (DNA:RNA)
RNA: B1 RNA with A25G, C26U, C27G, G31U
DNA 1: CAATCTGAATTCCGGTCTCCC
DNA 2: TGGTGGCTACGACGGGATT
B18: CGGCUAA (DNA:RNA)
RNA: B1 RNA with A25C, C26G, C27G, C29U, G31A
DNA 1: CAATCTGAATTCCGGTCTCCC
DNA 2: TGGTGGCTACGACGGGATT
B19: CAAUUCG (DNA:RNA)
RNA: B1 RNA with A25C, C26A, C27A, C28U, C29U, A30C
DNA 1: CAATCTGAATTCCGGTCTCCC
DNA 2: TGGTGGCTACGACGGGATT
B20: AUCCCUU (DNA:RNA)
RNA: B1 RNA with C26U, A30U, G31U
DNA 1: CAATCTGAATTCCGGTCTCCC
DNA 2: TGGTGGCTACGACGGGATT

Positions count from the first letter of the chain named. The list shows a part of the results.

In the assay the target is T1, RBFOX1 RRM RbFoxmut (Fox-RRM*). In words: EMSA; HiTS-Eq, 1 nM pool, 10 min; buffer printed only for the single-RNA assays: 10 mM Tris pH 7.5, 150 mM NaCl, 3.4 mM EDTA, 0.001% NP-40, 30 C. As to conditions: tags: His6 N-terminal (pET28a); label: 5' 32P. An outline of the steps:
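A pool of RNA with 7 randomized nucleotides, 5′-radiolabelled and with DNA-annealed flanks, was equilibrated at 1 nM for 10 min in 50 µL with purified RbFox RRM, wild type or mutant, across increasing protein concentrations. Free RNA was separated by 8% native PAGE, excised, reverse-transcribed, barcoded by PCR and sequenced. Relative association constants were obtained from read-count changes of each RNA species versus the control reaction and normalised to the cognate motif.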
As to B1, the binding signal was 0.0944 KA relative to UGCAUGU. The result for B2 reads 0.0894 KA relative to UGCAUGU. The result for B3 reads 0.13 KA relative to UGCAUGU. Turning to B4, the binding signal is 0.0844 KA relative to UGCAUGU. For the molecule B5, the binding signal was 0.0808 KA relative to UGCAUGU. Turning to B6, the binding signal was 0.0724 KA relative to UGCAUGU. With B7, the binding signal is 0.0992 KA relative to UGCAUGU.

Take B8: the binding signal is 0.106 KA relative to UGCAUGU.

As to B9, the binding signal was 0.0656 KA relative to UGCAUGU. Take B10: the binding signal was 0.0758 KA relative to UGCAUGU.

On to B11, for which the binding signal was 0.0808 KA relative to UGCAUGU.

Take B12: the binding signal was 0.0863 KA relative to UGCAUGU. Turning to B13, the binding signal is 0.119 KA relative to UGCAUGU.

B14: the binding signal was 0.0633 KA relative to UGCAUGU. As for B15, the figure is 0.0836 KA relative to UGCAUGU; as for B16, 0.0943 KA relative to UGCAUGU; as for B17, 0.0912 KA relative to UGCAUGU. As for B18, the figure is 0.0906 KA relative to UGCAUGU; as for B19, 0.0664 KA relative to UGCAUGU. As for B20, the figure is 0.0704 KA relative to UGCAUGU.
